Biological target: T1, PYK2 (UniProt Q14289)
T1 construct: Endogenous protein in cell lysate, detected with anti-PYK2 monoclonal antibody P47120 (Transduction Labs)
Assay: GST pull-down from JY8-8 lysate, anti-Pyk2 immunoblot
Protocol: In preparation of cell lysate including Pyk2, JY8-8 cell lysate was prepared by disrupting 4×10⁷ exponentially growing cells in one ml of Ipegal Lysis Buffer (described above) for 10 minutes on ice. Lysate was clarified by centrifugation at 10,000 rpm in a microfuge at 4° C. JY8-8 lysate (corresponding to approximately 1×10⁷ cells) was incubated for 90 minutes with 30 μl glutathione agarose on which approximately one μg of GST or GST-containing fusion protein was immobilized. The resin was washed three times with one ml Ipegal lysis buffer.
Pyk2 present in lysates of JY8-8 cells bound specifically to GST-LD protein but not to GST alone. Pyk2 binding was detected with wild-type GST-LD, and GST-LD proteins with mutations in the second or fourth LD motifs.

binding result: no binding
B1: GST protein (other)
chain: not shown
notes: Negative control immobilized on glutathione agarose; also called GST alone
